Laboratory results as given in PubChem BioAssay AID686979 (National Center for Advancing Translational Sciences (NCATS), 2013).
The whole screen tested about 420,000 compounds, of which about 50,000 (12%) were called active. Inconclusive means that the source gave no clear call. Such entries were picked first, then a sample of the others. Calls come from the whole dose curve; as a rule, active = well fitted inhibition curve with a large enough effect; inconclusive = small, poorly fitted or top-dose-only effect; inactive = flat fitted curve, though single readings scatter. Potencies of inconclusive entries are left out as doubtful fits.

Experiment: qHTS for Inhibitors of human tyrosyl-DNA phosphodiesterase 1 (TDP1): qHTS in cells in presence of CPT; note: nearly all actives have a fitted effect of over 55% in size
Conditions: chicken DT40 Tdp1-/-;hTDP1 cells + 20 nM CPT, ATP luminescence, 48 h; activity change, negative = growth inhibition: at 46.2 µM (top of the series)
Summary of the method: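 Cell growth measured by CellTiter-Glo luminescence after a minimum 48 h, 37 C compound exposure with 20 nM CPT in Tdp1-knockout DT40 cells stably expressing hTDP1, seeded 400/well; qHTS titration format.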
% is set by controls: 0 for no effect and ±100 for the full control effect; potency is the fitted concentration of half-maximal effect; tags give direction and shape of the fitted curve.

| SMILES | Potency | activity change, negative = growth inhibition |
| --- | --- | --- |
| CCOc1ccc(NC(=O)CN2C(=O)COc3ccc(S(=O)(=O)N4CCCC4)cc32)cc1 | inconclusive [inhibitor, partial curve] | – |
| CSc1nsc(SCC(=O)Nc2ccc(F)cc2)n1 | – | inconclusive: -38.4% [inhibitor] |
| c1ccc(COc2ccc(Oc3nc(N4CCCCC4)nc(N4CCOCC4)n3)nn2)cc1 | inconclusive [inhibitor, single point] | – |
| Cc1c(F)cccc1NS(=O)(=O)c1ccc2c(c1)c(C)cc(=O)n2C | inconclusive [inhibitor, single point] | – |
| O=C(N[C@H]1C/C=C\C(c2ccc(F)cc2)N(Cc2ccccc2)C(=O)C1)OCC1c2ccccc2-c2ccccc21 (stereo not given in full) | active: 18.4 µM | – |
| CC1(C(=O)Nc2ccc3[nH]ncc3c2)CCN1C(=O)CCc1ccccc1 (stereo not given) | inconclusive [inhibitor, partial curve] | – |
| COc1ccccc1-c1ncn(Cc2cccc(-c3ccccc3)c2)c1-c1cc(C)cc(C)c1 | inconclusive [inhibitor, partial curve, poor fit] | – |
| O=C(c1ccc(S(=O)(=O)Nc2ccccc2)cc1)N1CCCC(C(F)(F)F)C1 (stereo not given) | inconclusive [inhibitor, single point] | – |
| Cc1cc(-c2ccc(C)c(S(=O)(=O)NCc3ccc(Br)cc3)c2)on1 | inconclusive [inhibitor, single point] | – |
| COc1ccccc1-c1cc(C(=O)N/N=C/c2ccc(C)o2)c2ccccc2n1 | inconclusive [inhibitor, full curve] | – |
| COc1cccc(-c2cc(NC(C)=O)c3ncc(-c4ccc(OC)c(OC)c4)n3c2)c1 | inconclusive [inhibitor, single point] | – |
| CCOc1ccc(NC(=O)Cn2nnc(-c3ccc(C(N)=O)cc3)n2)cc1S(=O)(=O)N1CCCC1 | inconclusive [inhibitor, single point] | – |
| COc1cc(CNc2ncnc3c2ncn3[C@H]2CN(Cc3ccc4c(c3)OCO4)C[C@@H](CO)O2)cc(OC)c1OC | inconclusive [inhibitor, single point] | – |
| N#Cc1cccc(NC(=O)c2ccc3c(c2)N(Cc2cccc(Cl)c2)C(=O)c2ccccc2S3(=O)=O)c1 | inconclusive [inhibitor, partial curve] | – |
| O=C(c1ccc(COc2ccccc2Cl)o1)N1N=C(C(F)F)CC1(O)C(F)F (stereo not given) | active: 23.1 µM | – |
| COc1cccc(C(NC(C)=O)c2nc(-c3cnn(C)c3)cs2)c1 (stereo not given) | inconclusive [inhibitor, single point] | – |
| COCCNC(=O)C(=O)c1cc(C)n(-c2ccc([N+](=O)[O-])cc2)c1C | inconclusive [inhibitor, single point] | – |
| O=c1c(CCc2ccccc2)nc2cnc(N3CCOCC3)nc2n1C[C@H]1CCCO1 | inconclusive [inhibitor, single point] | – |
| CCc1ccc(NC(=O)CN(Cc2ccccc2)S(=O)(=O)c2ccc3nc(C)sc3c2)cc1 | inconclusive [inhibitor, single point] | – |
| CCCOc1ccc(CCc2n[nH]c(=S)n2-c2ccccc2)cc1 | inconclusive [inhibitor, single point] | – |
| Cc1cc(/C=C2\C(=N)N3N=C(CC(=O)N4CCOCC4)SC3=NC2=O)c(C)n1-c1ccccc1 | inactive | – |
| CCN(CC)C(=O)c1ccc(COc2ccccc2Cl)cc1 | inconclusive [inhibitor, single point] | – |
| Cc1ccc2c(c1)c(C)cc(=O)n2CCC(=O)O | inactive | – |
| CC(=O)Nc1ccc(S(=O)(=O)N[C@@H](C)C(=O)NC2CCCc3ccccc32)cc1 (stereo not given in full) | inactive | – |

| SMILES | Potency | activity change, negative = growth inhibition |
| --- | --- | --- |
| NC(=O)SCC(=O)Nc1ccc(Cl)c(Cl)c1 | active: 9.2 µM | – |
| CCc1nc2ccc(C(=O)N3CCN(S(=O)(=O)CC)CC3)cn2c1N(C)CCC(C)C | inconclusive [inhibitor, single point] | – |
| O=C(NCCN1CCOCC1)c1cnn(-c2nccc(-c3ccccc3F)n2)c1C1CC1 | – | inactive: 6.88% [at 9.04 µM] |
| CC(C)NC(=O)N1CC[C@@]2(CCCN(C(=O)c3cnccn3)C2)C1 | inactive | – |
| O=C1CC(NNc2ccccc2)C(=O)N1c1ccccc1 (stereo not given) | inactive | – |
| Cc1ccc(C2C3=C(CC(C)(C)CC3=O)NC3=C2C(=O)CC(C)(C)C3)o1 | inconclusive [inhibitor, partial curve] | – |
| CC(=O)N1c2ccc(S(=O)(=O)N3CCC(C(=O)NC4CCCCC4)CC3)cc2CC1C (stereo not given) | inactive | – |
| Cc1cc(Br)ccc1Nc1nc(N)nc(N)c1N=O | active: 10.3 µM | – |
| O=C(c1cccc([N+](=O)[O-])c1)N1CCCC(C(=O)N2CCN(c3ccccc3)CC2)C1 (stereo not given) | inactive | – |
| O=C1c2oc3ccc(Cl)cc3c(=O)c2C(c2cccc(Br)c2)N1CCO (stereo not given) | active: 25.9 µM | – |
| CSCCC(NC=O)C(=O)NC(C)C(=O)O (stereo not given) | active: 2.91 µM | – |
| O=C(Nc1cccc(S(=O)(=O)N2CCCCC2)c1)c1cnccn1 | inactive | – |
| Clc1ccc2c(NNc3ccccc3Cl)ccnc2c1 | inconclusive [inhibitor, single point] | – |
| CCOc1ccccc1N1CCN(C(=O)c2cc3c(C)cc(C)cc3[nH]2)CC1 | inconclusive [inhibitor, single point] | – |
| NC(N)=NCCCCN=C(N)N | inconclusive [inhibitor, single point] | – |
| Cc1ccccc1CSc1nc2cccnc2n1Cc1ccc(C(=O)NCCc2cccs2)cc1 | active: 13 µM | – |
| C=CCOc1ccc(C2C(C(=O)c3ccco3)=C(O)C(=O)N2c2nnc(C)s2)cc1 (stereo not given) | inconclusive [inhibitor, single point] | – |
| COC(=O)c1ccccc1NC(=O)c1cnn2c1NC(=C1CC1)C=C2C(F)F | inconclusive [inhibitor, single point] | – |
| CCC(=O)Nc1ccc(C(=O)CSc2nc3ccccc3[nH]2)cc1 | inconclusive [inhibitor, single point] | – |
| CCc1c(-c2cccc(Br)c2)ncn1Cc1cccc(-c2ccccc2)c1 | inconclusive [inhibitor, single point] | – |
| CC1CCCN(CC(O)COC(c2ccccc2)c2ccccc2)C1 (stereo not given) | inactive | – |
| COc1cc(CNCc2ccccn2)ccc1OCc1ccccc1Cl | inconclusive [inhibitor, single point] | – |
| COc1ccccc1C1C=C(c2ccc(Cl)cc2)Nc2nc(-c3ccc(Cl)cc3)nn21 (stereo not given) | active: 16.4 µM | – |
| Cc1ccc2oc(=O)n(CCNC(=O)Nc3ccc(C)c(F)c3)c2c1 | inconclusive [inhibitor, partial curve] | – |

| SMILES | Potency | activity change, negative = growth inhibition |
| --- | --- | --- |
| O=C(NC1CCCCC1)c1ccc(-c2ccc(Cl)cc2)o1 | inconclusive [inhibitor, single point] | – |
| CCCCOc1ccccc1Cn1c(=O)oc2ccccc21 | inactive | – |
| COc1ccc(C(=O)N/N=c2\oc3ccccc3cc2C(=O)NCc2ccccc2)cc1 | active: 16.4 µM | – |
| Cc1nn(C)c(C)c1Nc1ccc(N2C(=O)C3CC=CCC3C2=O)cc1[N+](=O)[O-] (stereo not given) | inconclusive [inhibitor, single point] | – |
| Cc1ccc(C)c(N2CCN(C(=O)C(C)n3c(C)c4cnn(-c5ccccc5)c(=O)c4c3C)CC2)c1 (stereo not given) | active: 20.6 µM | – |
| O=C(Nc1cccc(NC(=O)c2ccco2)c1)c1ccc2c(c1)OCO2 | – | inconclusive: -31.1% [inhibitor] |
| Cc1ccc(S(=O)(=O)N(C)CC(=O)NCCCn2nc(C)cc2C)cc1 | inactive | – |
| COCCn1c(SCC(=O)c2ccc(Cl)cc2)nnc1C(C)C | inconclusive [inhibitor, single point] | – |
| CCCCNCC1C(Oc2ccc(Cl)cc2)C(=O)N1c1ccccc1C (stereo not given) | inconclusive [inhibitor, single point] | – |
| COc1ccc(NC(=O)CSc2nc(-c3ccccc3)nc3c2Cc2c(CO)cnc(C)c2O3)cc1Cl | inactive | – |
| CC1CCN(c2c([N+](=O)[O-])c(=O)oc3ccccc23)CC1 | active: 16.4 µM | – |
| Cc1cc(C)nc(N2CCN(S(=O)(=O)c3ccc(F)cc3)CC2)n1 | inconclusive [inhibitor, single point] | – |
| Cc1ccccc1S(=O)(=O)NC(=O)C1(C)CCN1C(=O)Cc1ccc(C(C)(C)C)cc1 (stereo not given) | inactive | – |
| Cc1ccc(CN(C(=O)COc2ccc(Br)cc2)c2ccccn2)o1 | inconclusive [inhibitor, single point] | – |
| Cc1cc(C)n(C(C)CC(=O)N2CCc3ccccc32)n1 (stereo not given) | inactive | – |
| CCOc1ccc(OCCC(=O)N2CCN(S(=O)(=O)c3ccc(OCC)cc3)CC2)cc1 | inactive | – |
| CCn1c(C)c(C)c2cc(C(=O)N3CCc4ccccc4C3)ccc21 | inconclusive [inhibitor, single point] | – |
| CCCCCn1c(=N)n(CC(O)COc2cccc(C)c2)c2ccccc21 (stereo not given) | active: 2.91 µM | – |
| Cc1ccc(-c2nc(=S)c3c(n2Cc2ccco2)CC(C)(C)OC3)cc1 | active: 16.4 µM | – |
| COC(=O)c1ccc(OCC2c3cc(OC)c(OC)cc3CCN2C(=O)c2ccccc2F)cc1 (stereo not given) | inconclusive [inhibitor, single point] | – |
| CC(=O)c1ccc(N2CCN(C(=S)Nc3cccc(F)c3)CC2)cc1 | inconclusive [inhibitor, partial curve] | – |
| Cc1ccc(CNC(=O)c2c(-c3cccc(Br)c3)noc2C)o1 | inconclusive [inhibitor, single point] | – |
